Measurements from the supplement of paper PMC9174493.
Some of the results follow. Single values of this set are uncertain. Values with irradiation are relative to irradiated vehicle.

Key:
A549-Dual [1] = assay: NF-kB reporter (SEAP) activity, viability-corrected, relative to vehicle (fold change vs vehicle); higher = more activation of STING-IRF / NF-kB immune response reporter; conditions: 10 µM
A549-Dual [2] = assay: ISRE reporter (Lucia luciferase) activity, viability-corrected, relative to vehicle (fold change vs vehicle); higher = more activation of STING-IRF / NF-kB immune response reporter; conditions: 10 µM
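Wherever NF-kB reporter (SEAP) activity, viability-corrected, relative to vehicle is given: viability correction based on the alamar blue assay, with concentrations leaving 10% survival or less dropped.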

Row | Compound | NF-kB reporter (A549-Dual [1]; irradiation: 8 Gy/4 fr) | NF-kB reporter (A549-Dual [1]; irradiation: none) | ISRE reporter (A549-Dual [2]; irradiation: 8 Gy/4 fr) | ISRE reporter (A549-Dual [2]; irradiation: none)
1 | CC12CCC(O)CC1CCC1C2CC(O)C2(C)C(C3=CC(=O)OC3)CCC12O (centres undefined) [Digoxigenin] | 3.23 | 4.11 | 0.064 | 0.158
2 | Br.CN1C2CC(OC(=O)C(CO)c3ccccc3)CC1C1OC12 (centres undefined) [Scopolamine HBr] | 0.749 | 1.19 | 0.984 | 0.974
3 | CC1C(=O)OC2C(O)C34C5OC(=O)C3(OC3OC(=O)C(O)C34C(C(C)(C)C)C5O)C12O (centres undefined) [Ginkgolide C] | 1.49 | 0.882 | 1.11 | 0.668
4 | CC1OC(OC2C(O)C(O)C(O)C(O)C2O)C(N)CC1NC(=N)C(=O)O.Cl (centres undefined) [Kasugamycin hydrochloride] | 0.705 | 0.803 | 0.56 | 0.607
5 | Br.CC(Cc1ccc(O)cc1)NCC(O)c1cc(O)cc(O)c1 (centres undefined) [Fenoterol hydrobromide] | 0.921 | 0.864 | 1.08 | 0.935
6 | NC(=O)CN1CC(c2ccccc2)CC1=O (centres undefined) [Phenylpiracetam] | 0.708 | 0.787 | 0.691 | 0.785
7 | O=c1[nH]c2ccccc2n1CCCN1CCC(n2c(=O)[nH]c3cc(Cl)ccc32)CC1 [Domperidone] | 1.1 | 0.984 | 1.06 | 1.17
8 | CC(C)=CCOc1c2occc2cc2ccc(=O)oc12 [Imperatorin] | 0.916 | 1.12 | 0.369 | 0.379
9 | CC1/C=C/C=C/CC/C=C/C=C/C=C/C=C/C(OC2OC(C)C(O)C(N)C2O)CC2OC(O)(CC(O)C(O)CCC(O)CC(O)CC(O)CC(=O)OC(C)C(C)C1O)CC(O)C2C(=O)O (centres undefined) [Nystatin (Fungicidin)] | 0.562 | 0.867 | 0.505 | 0.594
10 | CCCC[N+]1(C)C2CC(OC(=O)C(CO)c3ccccc3)CC1C1OC12.[Br-] (centres undefined) [Butylscopolamine Bromide] | 0.607 | 1.28 | 0.544 | 0.858
11 | NCC1(CC(=O)O)CCCCC1 [Gabapentin] | 0.696 | 1.85 | 0.554 | 0.885
